Source: the RNAGym collection of RNA variant scans (doi:10.7554/elife.90254)
Read counts are not given, so values of variants with three or more changes are uncertain.

B1: LINE1-mini (parent)
chain: GGCAGAGCUCAACACAGCGUGGCAAAGUGGCUGUGGCUAGACUGCC

Variants of: B1
Assay: self-cleavage, relative activity (ratio to wild type); higher = more cleavage; in vitro, sequencing; the parent is a self-cleaving ribozyme
G1U C18U C46U gave a self-cleavage of 1.43.
For G5A C18A G35U U43C, the self-cleavage was 0.06.
C18A A24U A26C C42A showed a self-cleavage of 0.22.
A12U G21A A26C C45U gave a self-cleavage of 0.4.
Work on C3A G7A C15A G30A U43C yielded a self-cleavage of 0.06.
In the case of G2C A26C G30A, the self-cleavage is reported as 0.28.
With C10U C13G A24C C31A the self-cleavage was 0.08.
For G17U U32C G33U, the self-cleavage was 0.04.
Variant C13U G17C G21A A39U A41G U43A has a self-cleavage of 0.09.
In the case of C15U G19C G30C U43G, the self-cleavage is reported as 0.
G22C C31A G44U gave a self-cleavage of 0.05.
Work on G19U G27C G44U yielded a self-cleavage of 0.15.
For G21A A25C A41U, the self-cleavage was 0.86.
Work on A6U C13U G17C C18A C23U G44A C46A yielded a self-cleavage of 0.02.
With G7U C8U G17A the self-cleavage was 0.3.
Variant C3A C15A G40U U43A G44A has a self-cleavage of 0.16.
C10G C42A C45A showed a self-cleavage of 0.01.
For A14C C15A A24G U28G, the self-cleavage was 0.01.
Variant G5A G17C G21A A41G has a self-cleavage of 0.02.
Work on G5U A26G U43C C46U yielded a self-cleavage of 0.02.
Variant C8G A11C C23A has a self-cleavage of 0.02.
A14U C18G G27U gave a self-cleavage of 0.05.
Work on G1U A14C G29U U34A yielded a self-cleavage of 0.01.
Variant C10G U32G G35A has a self-cleavage of 0.
Work on G1C G7C G33C yielded a self-cleavage of 0.04.
G5A U9G C10U A14G C31U showed a self-cleavage of 0.05.
In the case of U9A C15A U32G C46G, the self-cleavage is reported as 0.36.
In the case of G5C G27C U32C U38C G40A C46U, the self-cleavage is reported as 0.06.
A6G C10U G29U showed a self-cleavage of 0.05.
For C3U A11U C46G, the self-cleavage was 0.01.
A4G C23G U32C showed a self-cleavage of 0.06.
Variant A6U G17C U20A U28A C37A has a self-cleavage of 0.06.
In the case of G22U G27A G29C C45G, the self-cleavage is reported as 0.1.
For A6C A14U C42U, the self-cleavage was 0.11.
C15A A26G A39U gave a self-cleavage of 0.
Variant A25C C31A U43G has a self-cleavage of 0.
Variant C8G C23A G35C has a self-cleavage of 0.07.
G5C G29C C31A G33U U38A showed a self-cleavage of 0.21.
C15U G22C A24C gave a self-cleavage of 0.06.
C13U U20A A26G G44A showed a self-cleavage of 0.01.
G5U C10U A16C showed a self-cleavage of 0.02.
In the case of G2U G7A C13U G17A, the self-cleavage is reported as 0.06.
C13U C18G U20A C42U showed a self-cleavage of 0.07.
U9G G33C A41C C46U showed a self-cleavage of 0.07.
Variant A24C G30A C37U has a self-cleavage of 0.12.
For A4C C8A C31U, the self-cleavage was 0.12.
Variant A11U C18U C23G G29U has a self-cleavage of 0.07.
For U9A A14U G35A, the self-cleavage was 0.8.
G1A C3G A12U C23A gave a self-cleavage of 0.59.
With G5A A6U C10U A11U A25U the self-cleavage was 0.01.
Work on G7C A25G U38G C42G yielded a self-cleavage of 0.
C3U C15G A16U A25C showed a self-cleavage of 0.03.
In the case of G5U G17U C18A G19A G33U G35C, the self-cleavage is reported as 0.04.
For C23A A25C G44U, the self-cleavage was 0.37.
With A4G G7U C37G the self-cleavage was 0.01.
With G29A U38G A41U the self-cleavage was 0.01.
A14G C18U G36C G40U showed a self-cleavage of 0.08.
For A16G G22U G35U U38A, the self-cleavage was 0.09.
With C15A A16C G35C the self-cleavage was 0.01.
A4U C13U G17U A26G showed a self-cleavage of 0.16.
With A14G G17U C23A U32G G35U the self-cleavage was 0.03.
A11C G17U G30U gave a self-cleavage of 0.
With G1A G5A G7A A14U A39U the self-cleavage was 1.18.
For U9G G22U C37U, the self-cleavage was 0.04.
For C3A G21U C31U U32A U38G, the self-cleavage was 0.06.
For C3G G5U C10U A41C, the self-cleavage was 0.05.
In the case of A6U C23U G30U, the self-cleavage is reported as 0.11.
In the case of U20C A26C G30A, the self-cleavage is reported as 0.18.
A12U G29C G30C gave a self-cleavage of 0.06.
G33U U38G U43A showed a self-cleavage of 0.29.
Work on C18A G19A G29C C45A yielded a self-cleavage of 0.23.
Work on C3A C10U G19U G27C yielded a self-cleavage of 0.08.
U9A C18A C45G showed a self-cleavage of 0.15.
A4C C18U U34A showed a self-cleavage of 0.
With G21C G29A G44U the self-cleavage was 0.14.
With C10U A14C G40A the self-cleavage was 0.03.
G1A A4G G30C C42U showed a self-cleavage of 0.04.
For C10G G22U G35U, the self-cleavage was 0.02.
With G1A C3U G33U C42A the self-cleavage was 0.15.
For C23A A26C G30U, the self-cleavage was 1.05.
For A11G C15U U32A, the self-cleavage was 0.01.
Variant A6U C23G G27U has a self-cleavage of 0.09.
Variant C15G C31A A39G has a self-cleavage of 0.01.
With A6C G33C G36A C37A A41U C42A the self-cleavage was 0.02.
With A12U C15U A16U G21U the self-cleavage was 0.02.
Variant A26G C42U G44A has a self-cleavage of 0.08.
G7U G19C C37A C46G showed a self-cleavage of 0.04.
Variant A11U A12U U38G has a self-cleavage of 0.02.
With G2C A6U C23A G36A the self-cleavage was 0.07.
In the case of G7U C18U G44A, the self-cleavage is reported as 0.43.
Work on U9G U20A U34A yielded a self-cleavage of 0.14.
In the case of G7C G22A G29A G35U, the self-cleavage is reported as 0.09.
G2U C3A U9C A11U G29U showed a self-cleavage of 0.03.
G19A A26G G35U A39C gave a self-cleavage of 0.09.
Variant G1U A26C G35U has a self-cleavage of 0.05.
For G2C A14U U34C, the self-cleavage was 0.07.
Work on C3G G7U C42U yielded a self-cleavage of 0.15.
Work on G2C G35C G44C yielded a self-cleavage of 0.02.
Variant G19A U38G A39G C46A has a self-cleavage of 0.01.
Work on G2C A6G C31A yielded a self-cleavage of 0.04.
For G22C C23U G30U C45U C46G, the self-cleavage was 0.14.
C23U C31G U43C showed a self-cleavage of 0.03.
With G7A A11C C18U C31G U34A the self-cleavage was 0.01.
With C13U A41G C45A the self-cleavage was 0.02.
With C13U C15U C37G the self-cleavage was 0.03.
With C10A A12G G22A G30U C31G U34G G40A the self-cleavage was 0.
With A16U A39C C42A the self-cleavage was 0.02.
In the case of C13U U20C G29C G44U, the self-cleavage is reported as 0.05.
C15U U28C U34C showed a self-cleavage of 0.04.
A26C G29U G35U A41G gave a self-cleavage of 0.02.
C10U C15U G17A A26C G33C A41C gave a self-cleavage of 0.02.
Variant G17A U20A U34C has a self-cleavage of 0.01.
Work on U28A U32A U34C C37U yielded a self-cleavage of 0.02.
Work on A11G U20C U43C yielded a self-cleavage of 0.01.
In the case of G5U A24U G44U, the self-cleavage is reported as 0.03.
A6G C8U U9A G22U G33U G44U gave a self-cleavage of 0.07.
Variant C10U C18A U32C U38A A39U has a self-cleavage of 0.03.
With C10A C18G G36A C42A the self-cleavage was 0.02.
G1C G21U C46A gave a self-cleavage of 0.32.
Variant G17U G29U G40C has a self-cleavage of 0.08.
C8A C23U C45G gave a self-cleavage of 0.06.
For C18U G29A G36A, the self-cleavage was 0.3.
With C3G C8G A16U U28A the self-cleavage was 0.06.
Work on G17C A24G C45G yielded a self-cleavage of 0.13.
A24G A26U G35U gave a self-cleavage of 0.08.
G1C C3G U9G C10A C15A A39G showed a self-cleavage of 0.02.
Work on A11U C18A U20C C31A G40U yielded a self-cleavage of 0.01.
With C3A G19C U43C the self-cleavage was 0.09.
A14G G40U C46U gave a self-cleavage of 0.4.
With G2A A25G C45G C46G the self-cleavage was 0.55.
Variant U9A G21C C31A has a self-cleavage of 0.02.
In the case of U9G A12G C15A A25U C45U, the self-cleavage is reported as 0.02.
Variant A16C G36U C45G has a self-cleavage of 0.02.
For G7A C8A G27A U28G G33U, the self-cleavage was 0.07.
Work on C10G G17A G21U yielded a self-cleavage of 0.21.
G7C G22A G30A G33U showed a self-cleavage of 0.05.
C10G C23A G40C A41G C45G showed a self-cleavage of 0.02.
For G2A C3U G36C, the self-cleavage was 0.72.
Variant G1A G7A U9A has a self-cleavage of 2.04.
Work on G2C G19A A24G A25G yielded a self-cleavage of 0.13.
Variant G22A G36A C37A has a self-cleavage of 0.02.
C15A G30U C37A G44U showed a self-cleavage of 0.02.
Variant U20A G21A U34G U38A A41U has a self-cleavage of 0.04.
A16G G17C A41C C46A gave a self-cleavage of 0.06.
For G7U U20G G44U, the self-cleavage was 0.07.
Work on U34C A39C C45A yielded a self-cleavage of 0.02.
For U9G C10G G19U U20A C31G C46U, the self-cleavage was 0.02.
With C8A A24G C42G the self-cleavage was 0.2.
G2U C15A U20A G29C G44A gave a self-cleavage of 0.01.
C3G A4C G21A C23A C45A showed a self-cleavage of 0.56.
G33A G35C G36A gave a self-cleavage of 0.03.
For G1U G36A U43C, the self-cleavage was 0.09.
C3G A12C G35C U38G gave a self-cleavage of 0.02.
A16C G27A G29U G30U U34C gave a self-cleavage of 0.1.
Variant C3G C15U G21A U43A has a self-cleavage of 0.16.
For U9C G17U U28G, the self-cleavage was 0.03.
G1C G2C A24U G35U showed a self-cleavage of 0.31.
In the case of G5U C8U A11G A16C G21A G33C, the self-cleavage is reported as 0.02.
Variant G1C C31G U38C A39U has a self-cleavage of 0.
Work on G1C A14G C15U yielded a self-cleavage of 0.04.
A12U G19A G30A U34A U38C gave a self-cleavage of 0.02.
Variant C3U A16C C37A has a self-cleavage of 0.07.
G1A G21U U38G gave a self-cleavage of 0.05.
Variant G5U C10G A11C U20G C23A U28C has a self-cleavage of 0.01.
For A14C G19U G44U, the self-cleavage was 0.11.
With C3A A4C G29U G44C the self-cleavage was 0.13.
Work on U28C C31G G33C yielded a self-cleavage of 0.03.
